# Results reported in the supplement of paper PMC11417369.
# ± gives the standard deviation of the averaged measurements. The list shows a part of the results.
# Tested on: PfAP2-LT AP2 domain (GST-tagged)
# Test: gcPBM binding intensity (ln(normalized median fluorescence intensity)); higher = stronger DNA binding
# In short: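 GST-tagged P. falciparum DNA-binding domains, expressed in E. coli (about 25 μg on average), were applied for 1 h to an Agilent 4 × 180k array of primer-extended double-stranded 36-bp intergenic genomic probes plus negative controls. The binding buffer was 1× PBS with 1% milk, 0.2 mg/ml BSA, 0.5% salmon testes DNA and 0.03% Triton X-100. Bound protein was detected with Alexa488 anti-GST antibody and scanned at 488 nm. Binding intensity is the highest Masliner-normalised natural-log median intensity across replicate spots of either probe orientation.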
row,Sequence,gcPBM binding intensity (ln)
1,CCTTTTTCTAATGGATGTACTTATTATATACATTAT [XGTACX_site281],8.88 ± 0.44
2,ATATTTTTTCTGAACGGTACAGAATTTTTCAAGATT [XGTACX_site484],8.72 ± 0.44
3,TATATATATCTGTATACACACATATGTATGTTATGT [CACACA_site6090],9.48 ± 0.44
4,TGCTCATGAGGTCAGAGTACAAAATAGTAAATGTAT [XGTACX_site2973],8.97 ± 0.52
5,TTTTGAATTAAACAAGCATGCTTTATTTACTTCTTA [TGCATGCA_site289],8.68 ± 0.52
6,TAATTCATCCTATGCACACACAATACCAAAATGTGC [CACACA_site4269],9.37 ± 0.31
7,TAATTTATTAATAATTGTACAGATATTATACTTAAA [XGTACX_site8947],8.29 ± 0.5
8,TTTATTTTTATTTTTGTGCACGGGATTAAATAAAAG [GTGCAC_site9842],8.39 ± 0.42
9,TTTTTTTTTTTTTTTCTTTTTTATTCTCACAAAAAA [CACACA_negctrl_site1790],8.07 ± 0.44
10,AACATTTATATTTAAGTGCAGATGCTGTAATTTAGA,8.55 ± 0.52
11,ATGCGTTCATACATACATACATACATACAATTTGTA [TGCATGCA_negctrl_site50],9.04 ± 0.35
12,GAACAAATTACAAGTTGTACTTTATGTAAATTATTA [XGTACX_site5304],8.66 ± 0.45
13,TTTTTATAACAAAGTATTTAAATAATTTATACTAAT [TGCATGCA_negctrl_site104],8.18 ± 0.46
14,GATTATCTTCAAGTATGTACACACTATATATAATAA [XGTACX_site5108],8.84 ± 0.43
15,AATAAATAGAGGAAATGTACATATAAAAATAATTTC [XGTACX_site2454],9 ± 0.49
16,TTAACATCTTCGTTGACACACAAAAAAAAAAATAAT [CACACA_site1819],8.71 ± 0.42
17,TACACAAACAGACACACACACACACGCGCACAAAAA [CACACA_site7192],10.06 ± 0.042
18,ATTATAAATATATTTTGTACTTAAAAGGAAAAAAAA [XGTACX_site55],8.21 ± 0.46
19,ATTACATGTATACATGTCAACACGTATAAAAAAAAA [CACACA_negctrl_site1154],8.89 ± 0.45
20,AATAAGCATAGACACACACACAAAAAAAAAAAAAAA [CACACA_site6476],9.51 ± 0.64
21,ATATAACAGAAACACACACACATATATATATATTAT [CACACA_site4140],9.81 ± 0.26
22,ATAAATGATAGTAAAAGTACACAAAATGTTTTAAAA [XGTACX_site1623],8.66 ± 0.57
23,TATTTTTATATATAATCACACATTGGAATGTTCTAA [CACACA_site5540],8.67 ± 0.44

row,Sequence,gcPBM binding intensity (ln)
1,TTCTTTATGGAAGTGTAAAAAAAGAAATACTTTTTT [CACACA_negctrl_site915],8.19 ± 0.51
2,GCACGAAACAATGTATATATATATATATATATATAT [GTGCAC_negctrl_site412],10.32 ± 0.078
3,TAAGTAAACTTTCTATGTACATATTTTCAAATATTA [XGTACX_site6260],8.59 ± 0.43
4,CTTATATATACATATACACACACACCCATATATATA [CACACA_site8705],9.59 ± 0.13
5,GGTATAATTCATATAACACACATTTCAATGTTAAAA [CACACA_site2172],8.86 ± 0.43
6,TGTATTAATTTGTAATGTACACATATATGTATTATA [XGTACX_site4152],8.82 ± 0.33
7,CCAAAATTTATAAATTGTACATATTTTTAAATTCTT [XGTACX_site833],8.37 ± 0.4
8,GATAAATAATAATAAGGTACACATAAAATATTCCTT [XGTACX_site2963],8.8 ± 0.47
9,TTAACAAAATTTTTAACACACAAAAAAAAAAAAAAA [CACACA_site1828],8.55 ± 0.42
10,ATGTAGACAACATATGAACACACAAAATATTTTTTT [CACACA_site8955],9.06 ± 0.4
11,TCTTTTGTTTAACCTACATGCAGAATATAAGTCTTC [TGCATGCA_site99],8.64 ± 0.41
12,ATTCATTATTCACCTTGTACACAAATGATTATCGTA [XGTACX_site455],8.93 ± 0.45
13,ATAAAGAAATAAAGTTGTACATTATATATATATATA [XGTACX_site7729],8.98 ± 0.4
14,TGTTTAAAAATAATTTGTACATATATTTTATTTCAT [XGTACX_site1272],8.59 ± 0.54
15,AATAATTTTTTAAACACACACACATATATATATATA [CACACA_site95],9.78 ± 0.3
16,TATAAAAATAGGATTTGTACATATAAAAAAGGAAAA [XGTACX_site8678],8.57 ± 0.54
17,CAGAAATAGAGATACACACACACATATATTTATGTA [CACACA_site3968],9.72 ± 0.46
18,TATAAATATATGTATGCACACATTTTTTTTGGAAAA [CACACA_site1070],8.68 ± 0.35
19,TAATATAAAAAAGGTACTACACGAAGGAATAAAAAT [XGTACX_site6872],9.06 ± 0.45
20,TTTGTTCTTTTAATGTGTACATATACACTTGTAATA [XGTACX_site2635],8.82 ± 0.4
21,ATGTATGCAAAAATGGTGCATATTAAATGTATAACA [GTGCAC_site9722],9.01 ± 0.48
22,AAAAAAAAAAGAAACACACACATTTGTCTATAATAT [CACACA_site7063],9.34 ± 0.53
23,TGACCTTATGTGTTTTGAAGGGGAAAGGAAATGCGC [XGTACX_negctrl_site411],8.65 ± 0.26

row,Sequence,gcPBM binding intensity (ln)
1,AAAATTCTTATAAGATGTACAATTTGTAACACTATA [XGTACX_site510],8.66 ± 0.38
2,TTTTGTATATATTATTGTACTTTTAATATAGATCGT [XGTACX_site5830],8.7 ± 0.42
3,AAATAAATATATAATACACACAAAAATATAAAATGT [CACACA_site3711],9.28 ± 0.37
4,TCACATACATTACTTACACACCATATTAAGATATAC [CACACA_site4415],9.02 ± 0.34
5,TTTTTTACAACACGAAAATGAACAATTATAATAAAT [TGCATGCA_negctrl_site301],8.5 ± 0.38
6,TTATACTCACGTTACACACACACAATATATATATAT [CACACA_site4137],9.6 ± 0.2
7,TAATCATAAAAAAATACACACATATAAAATATAGAT [CACACA_site7020],9.09 ± 0.41
8,AAAAGTTAAGCAACAAATTTTATTTCTTATATATAA [TGCATGCA_negctrl_site134],8.31 ± 0.47
9,ATATTTATAAATTGCACACAAATAATAACATTATAT [CACACA_site5322],8.94 ± 0.43
10,TTATACACTGATAAAAGTACATTTGTATGTTTTTTT [XGTACX_site8959],8.65 ± 0.47
11,ATCTAAAAATTTTACGCACACAAGTAAAAAAAAAAA [CACACA_site2485],8.94 ± 0.57
12,TTTTATAATCATAATAGTACTTTTTCTTTTTCACAT [XGTACX_site5017],8.69 ± 0.51
13,AGTAAAAAAAATATCTGTACATATTAATATAAATGT [XGTACX_site6234],8.79 ± 0.49
14,AAATATTATTCTTTTATTTTTAAACATATAATTATA [GTGCAC_negctrl_site136],8.38 ± 0.47
15,AAAAAAAAAAAAAAAACACACATATATATTATTGTA [CACACA_site3979],8.83 ± 0.3
16,TTTTTTGTATTTTTCACACACTCTCTATCTCTCTCA [CACACA_site2095],9.14 ± 0.55
17,GAATATTACATGTATTGTACAGGTAATGTTAAAAAT [XGTACX_site8274],8.87 ± 0.38
18,TATTTATTTAATTACACACGAACATATAACCATTTC [CACACA_site211],9.01 ± 0.43
19,TATATATATATAATTACACACAATGTTCTATATATA [CACACA_site3235],9.01 ± 0.38
20,TTTTCTTTTAAACATATATATATATATATATATATA [XGTACX_negctrl_site559],9.45 ± 0.36
21,TGTAGACTACATAGTAGTACATAATATATACATATA [XGTACX_site367],8.93 ± 0.59
22,GTTGAAAAAAAAAATGCACACGCATACATATAATAT [CACACA_site8117],9.13 ± 0.35
23,ATTTCTTTGCTTTTCAAACACACAAAAGTTATTATA [CACACA_site520],8.77 ± 0.47

row,Sequence,gcPBM binding intensity (ln)
1,TCATTCCATACTTTAACACACAAATATATTTAATCC [CACACA_site145],8.76 ± 0.49
2,TTTTTTTTTTTGTTTTGTACATAAATTGCAACCAAT [XGTACX_site8949],8.66 ± 0.49
3,ATATATATATATATATGTACATATTCACTTATATTT [XGTACX_site5324],9.63 ± 0.21
4,TAACATAAATCCATACGTACCTATATATATATAATA [XGTACX_site2626],8.78 ± 0.4
5,ATTTATATTAAAAGTGTGCACTTTTTTTTTTTTTTT,8.68 ± 0.46
6,ATTTATATGTAGATGTGTACTTAATTGTAATGTGTT [XGTACX_site6422],8.95 ± 0.45
7,TATCAAAATAAATGCACACAAATTGCACATATCTAT [CACACA_site1097],9.16 ± 0.37
8,CAAAAACATACCTACACACACAATATGTATAAATAA [CACACA_site7617],9.55 ± 0.38
9,TTGTTTTGCTAAAAATGTACTCTATATAAAAGCTTT [XGTACX_site4027],8.41 ± 0.44
10,TATATATATTATATATGTACACATATGTGAGAATGA [XGTACX_site2992],8.88 ± 0.46
11,CAAAAAATACGATGTTGTACTATGTATTCCTGATGT [XGTACX_site246],8.86 ± 0.4
12,TACTTCGATAATAATCGTACATATATATTGTATTTA [XGTACX_site5700],8.84 ± 0.35
13,TATATATACATAAAAACATGCAATATATACACATTA [TGCATGCA_site444],8.82 ± 0.39
14,AACTTTTTTATATGCACACATAAACAAGGATATATA [CACACA_site2874],8.88 ± 0.31
15,AAAAAAAAAAAAAACACACACACACCCATACACATA [CACACA_site2860],10.19 ± 0.078
16,TTCGACGAGAGCAAGTGTACTCTTGAATAATTTATA [XGTACX_site7613],8.59 ± 0.47
17,ATTTTATTTTTTGAGTGTACTAGTTCAACAACTCCG [XGTACX_site8600],8.79 ± 0.54
18,TGTTATATATTATATACATGCACAAAAGCAACACAA [TGCATGCA_site1009],8.76 ± 0.35
19,TCCTATATCACAAATGTGCACAGAAAAAAAAAATAT,8.8 ± 0.45
20,ATATATATATACATACGTACACACAAATATTAAAAT [XGTACX_site4007],9.13 ± 0.39
